Values marked as one replicate rest on one cluster of the flow cell; about a third of the high ones do not repeat.

The data set relates to ATP. Description: switch fluorescence ratio, 500 uM ATP over buffer (Cy3 cluster intensity, sum of 5 cycles each) (fold (ratio)); higher = stronger signal-on switching upon ATP binding; sequences stand for … in TCGTCGGCAGCGTCAGATGTGTATAAGAGACAGTTTTTTTTTTTTTTTTTTTTTTTTT…TC. The settings on record: aptamer strand: ATP DNA aptamer (quencher-CACCTGGGGGAGTATTGCGGAGGAAGG + anchor), 100 nM annealed; ATP concentration: 500 uM; one replicate. Put shortly:
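Between each of five buffer/ATP cycles, the flow-cell was stripped with NaOH and re-annealed. Each cycle imaged Cy3-labelled switching-strand clusters, annealed to 100 nM quencher-labelled ATP aptamer on a modified Illumina MiSeq flow-cell, first in selection buffer and then after 15 min with 500 uM ATP at 22 °C. The fluorescence ratio is summed target-cycle over summed buffer-cycle Cy3 intensity per cluster, averaged per switch-domain sequence, with clusters outside 100-1000 RFU excluded.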
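Further: ATP exposure 15 min at 22 °C before imaging.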

For TGCCGACTGG, the switch fluorescence ratio amounted to 1.01.
For GGTGGAAAA, the switch fluorescence ratio amounted to 0.987.
Consider TCGGCCCTGT, for which the switch fluorescence ratio amounted to 0.992.
Regarding CACGGGTTTA, the switch fluorescence ratio is 0.971.
As for AGCCACACG, the figure is 1.06; as for GACTGTCGC, 1.07; as for ATGCTAAAGG, 0.981.
TCTCGGGCAG: the switch fluorescence ratio was determined as 1.28.
The value for ACAGATGTCT was 0.992; that for GACAGATCA was 0.994; that for AGGTTACAAA was 1.03.
As for GTGGCGCCGT, the figure is 1.03.
Take ACTATTCTTT: the switch fluorescence ratio worked out at 1.04.
TTCTTGACAT: the switch fluorescence ratio stood at 1.
As for CCGGATCATG, the figure is 1; as for AGAGACATCC, 1.02.
The value for GGTCAACAAC was 1.05.
The value for AACAAACGTG was 1.13; that for CTTCGACGGC was 1.41.
With ACATATGGAA, the switch fluorescence ratio is 1.06.
For the sequence ATACGAATAG, the switch fluorescence ratio is 1.03.
GGGGTTACA: the switch fluorescence ratio worked out at 0.98.
In the case of GTGTGGACAG, the switch fluorescence ratio turned out to be 1.07.
With TCTTCTTGAG, the switch fluorescence ratio came to 0.948.
CGGGTATGAA: the switch fluorescence ratio is 1.04.
For the sequence CCAATCTTTT, the switch fluorescence ratio was 1.02.
Regarding GCCGCTCAGA, the switch fluorescence ratio turned out to be 1.04.
For the sequence ATGGGCAGAA, the switch fluorescence ratio is 0.985.
The value for TAGCCTGCCT was 1.11; that for GCTTAAATGG was 1.04.
As for ATTGTTTAGT, the figure is 1.02; as for TACGGCAGCG, 1.02; as for CCCCGCAGGT, 3.99.
Take TCCACTAGGA: the switch fluorescence ratio came to 1.09.
As for TAGAACGTA, the switch fluorescence ratio came to 1.07.
The value for CCATAATGTA was 0.971; that for CGTTATACCT was 1.23; that for TAGTTGGAGT was 1.03.
GTCGTTCAAT: the switch fluorescence ratio amounted to 0.968.
In the case of TCTTAGATTT, the switch fluorescence ratio amounted to 0.961.
As for CAGGCCATAC, the switch fluorescence ratio amounted to 3.13.
GGCGAGTTTG: the switch fluorescence ratio stood at 1.
Consider TGGGGTGTGT, for which the switch fluorescence ratio came to 1.01.
As for GCGATTATAA, the figure is 1.05; as for ACTTAGGTAC, 1.04; as for AGAGTACGAT, 1.03.
As to AATGAGAGCT, the switch fluorescence ratio is 0.986.
CTGATTCGGA: the switch fluorescence ratio amounted to 1.03.
Consider TATTATGTTG, for which the switch fluorescence ratio was 0.998.
Take GGACGAACGC: the switch fluorescence ratio was found to be 1.9.
On to ACGGTGACAC, for which the switch fluorescence ratio was determined as 1.14.
In the case of AAGCTAATAA, the switch fluorescence ratio amounted to 1.19.
For AAGATCCTAT, the switch fluorescence ratio came to 0.95.
As for ACTTAACTAA, the switch fluorescence ratio worked out at 1.13.
GAGTGATCCT: the switch fluorescence ratio was 1.04.
GTTCCAGGCG: the switch fluorescence ratio worked out at 1.06.
In the case of TTAGCTAACA, the switch fluorescence ratio turned out to be 1.01.
As for TCTGCTCTAC, the switch fluorescence ratio stood at 2.54.
Turning to GATGTTGCGC, the switch fluorescence ratio amounted to 0.992.
As for TACATAAGAC, the switch fluorescence ratio was 1.09.
Turning to CTCGTTACA, the switch fluorescence ratio was found to be 0.955.
The value for GCAAACTTCG was 1.09.
With ACCTCGCCTT, the switch fluorescence ratio came to 1.1.
The value for TAGGAGGCTG was 1.1; that for CTCAAAAGCG was 1.01; that for CGACGGTTAG was 0.972.
As for GTTTGAAGAT, the switch fluorescence ratio was found to be 0.985.
Turning to ATAGGGTGAG, the switch fluorescence ratio is 1.03.
The value for TATCTATAGA was 1.01.
The value for CGGTGCGCT was 1.04.
Turning to CGGGGACATC, the switch fluorescence ratio was found to be 1.01.
For the sequence ACACGTGTAA, the switch fluorescence ratio was found to be 1.02.
For AGTATAGCGG, the switch fluorescence ratio came out at 0.995.
The value for ACCTACCAAG was 1.3; that for ACTACAATA was 1.09; that for GGCATTATGG was 0.999.
As for TAATCACGGT, the figure is 1.04; as for GTTGATCAAG, 0.96.

The values above are taken from the supplement of paper PMC10126150.
